Test results from patent publication US11285169B2, “Methods for modulating chemotherapeutic cytotoxicity” (The United States of America, as represented by the …, priority 2013, dated 2022).
Counter-ions that a name gives are not always drawn. Like-named read-outs stand apart in the source and are kept apart here.

Key:
[1] = system: CD47 deficient (CD47 KO) Jurkat T cells
[2] = WT Jurkat cells, 48 hours, 10^-9 to 10^-4 M, CellTiter-Glo
[3] = CD47 KO Jurkat T cells, 48 hours, 10^-9 to 10^-4 M, CellTiter-Glo
[4] = difference CD47 KO minus WT Jurkat cells, 48 hours

Compound	Maximal Response WT (RLU) (WT Jurkat cells; [2])	Maximal Response CD47 KO (RLU) [1, 3] [RLU]	other results
COc1ccc(Cn2ccc3ccc(C(=O)NO)cc32)cc1 [PCI-34051]	–	–	Maximal Response WT (RLU) (WT Jurkat cells): 33.723 RLU; Maximal Response CD47 KO (RLU) [1]: 74.801 RLU; Δ Maximal Response CD47KO-WT [1]: 41.078
C[C@]12CC[C@@H]3c4ccc(OC(=O)N(CCCl)CCCl)cc4CC[C@H]3[C@@H]1CC[C@@H]2O [Estramustine]	–	–	Maximal Response WT (RLU) (WT Jurkat cells): 105.466 RLU; Maximal Response CD47 KO (RLU) [1]: 135.618 RLU
C/C(=C\c1csc(C)n1)[C@@H]1C[C@@H]2O[C@@H]2CCC[C@H](C)[C@H](O)[C@@H](C)C(=O)C(C)(C)[C@@H](O)CC(=O)O1 [Epothilone A]	–	–	Maximal Response WT (RLU) (WT Jurkat cells): 26.393 RLU; Maximal Response CD47 KO (RLU) [1]: 52.727 RLU; Δ Maximal Response CD47KO-WT [1]: 26.334
C/C=C(\C)C(=O)N[C@@H](c1ccccc1)[C@@H](O)C(=O)O[C@H]1C[C@@]2(O)[C@@H](OC(=O)c3ccccc3)[C@@H]3[C@]4(OC(C)=O)CO[C@@H]4C[C@H](O)[C@@]3(C)C(=O)[C@H](OC(C)=O)C(=C1C)C2(C)C [Cephalomannine]	–	–	Maximal Response WT (RLU) (WT Jurkat cells): 22.158 RLU; Maximal Response CD47 KO (RLU) [1]: 45.625 RLU
CS(=O)(=O)N1CCc2c(-c3cnc(N)nc3)nc(N3CCOCC3)nc21 [CH-5132799]	10.205	32.385	–
COc1ccc(COc2cc3oc(=O)c4cc(C(C)O)ccc4c3cc2OC)cc1 (centres unmarked) [SG-00529]	14.623	39.325	–
COc1ccc(/C=C\c2cc(OC)c(OC)c(OC)c2)cc1O [Combretastatin A-4]	–	–	Maximal Response WT (RLU) (WT Jurkat cells): 12.882 RLU; Maximal Response CD47 KO (RLU) [1]: 36.125 RLU; Δ Maximal Response CD47KO-WT [1]: 23.243
CN1N=C(N)c2cn([C@@H]3O[C@H](COP(=O)(O)O)[C@@H](O)[C@H]3O)c3ncnc1c23 [Triciribine phosphate]	52.513	80.607	–
CC(=O)O[C@@]12CO[C@@H]1C[C@H](O)[C@@]1(C)C(=O)[C@H](O)C3=C(C)[C@@H](OC(=O)[C@H](O)[C@@H](NC(=O)OC(C)(C)C)c4ccccc4)C[C@@](O)([C@@H](OC(=O)c4ccccc4)[C@H]21)C3(C)C [Docetaxel]	24.806	57.66	–
CC(C)c1ccc2c(c1)c(SC(C)(C)C)c(CC(C)(C)C(=O)O)n2Cc1ccc(Cl)cc1 [MK-886]	13.757	40.805	Δ Maximal Response CD47KO-WT [1, 4]: 27.048
CN(Cc1cnc2nc(N)nc(N)c2n1)c1ccc(C(=O)N[C@@H](CCC(=O)O)C(=O)O)cc1 [Methotrexate]	9.002	54.169	–
C[C@]12CC[C@@H]3c4ccc(O)cc4CC[C@H]3[C@@H]1C[C@@H](O)[C@@H]2O [Estriol]	72.648	120.332	–
CCN(CCO)CCCC(C)Nc1ccnc2cc(Cl)ccc12 (centres unmarked) [Hydroxychloroquine sulfate]	88.656	112.507	–
O=C(NCc1ccncc1)C12CC3CC(C1)CC(c1ccc(Cl)cc1)(C3)C2 [ABC-294640]	8.808	32.778	–
Cn1c(CCCC(=O)O)nc2cc(N(CCCl)CCCl)ccc21 [Bendamustine]	–	–	Maximal Response WT (RLU) (WT Jurkat cells): 25.146 RLU; Maximal Response CD47 KO (RLU) [1]: 122.856 RLU; sensitivity of CD47-expressing versus deficient Jurkat T cells ([1]; 48 hours): differing sensitivities
CN(C)CCc1c[nH]c2ccc(Cn3cncn3)cc12 [Rizatriptan benzoate]	62.211	83.76	–
Clc1ccc2ncc(-c3cccc(NC4CNC4)n3)n2c1 [NCGC00241410-01]	11.766	41.906	Δ Maximal Response CD47KO-WT [1, 4]: 30.14
Clc1ccc2c(c1)C(N1CCNCC1)=Nc1ccccc1O2 [Amoxapine]	28.037	60.648	–
CCCCCN(C)CCC(O)(P(=O)(O)O)P(=O)(O)O [Ibandronate sodium hydrate]	103.48	127.096	–

Compound	Maximal Response WT (RLU) (WT Jurkat cells; [2])	Maximal Response CD47 KO (RLU) [1, 3] [RLU]	other results
CC(C)NC[C@@H](C(=O)N1CCN(c2ncnc3c2[C@H](C)C[C@H]3O)CC1)c1ccc(Cl)cc1 [GDC-0068]	2.029	31.005	–
CCN(c1ccccc1)c1cc(NC)[n+](C)c(C)n1.[Cl-] [ICI-D7288]	5.518	27.963	Δ Maximal Response CD47KO-WT [1, 4]: 22.445
CNC(=O)c1cc(Oc2ccc(NC(=O)Nc3cc(C(C)(C)C)nn3-c3ccc4ncccc4c3)c(F)c2)ccn1 [DCC-2036]	3.812	41.19	–
CN(C)c1ccc(C(=C2C=CC(=[N+](C)C)C=C2)c2ccc(N(C)C)cc2)cc1.[Cl-] [Methylrosaniline chloride]	–	–	AC50 (WT Jurkat cells; read-out: AC50 (μM) WT): 0.235 µM; Δ LogAC50 CD47KO-WT [1]: 0.75; AC50 ([1]; read-out: AC50 (μM) CD47 KO, CD47 KO Jurkat T cells, cell viability, 48 hours): 1.32 µM
COc1nc(C)nc(Cl)c1N=C1NCCN1 [Moxonidine hydrochloride hydrate]	34.088	66.695	–
O=C(O)[C@]1(Cc2cccc(Nc3nccs3)n2)CC[C@@H](Oc2cccc(Cl)c2F)CC1 [MK-5108]	50.854	85	Δ Maximal Response CD47KO-WT [1, 4]: 34.146
COCCCC/C(=N\OCCN)c1ccc(C(F)(F)F)cc1 [Fluvoxamine maleate]	0.209	34.845	–
Elactocin	–	–	Maximal Response WT (RLU) (WT Jurkat cells): 6.663 RLU; Maximal Response CD47 KO (RLU) [1]: 30.361 RLU; Δ Maximal Response CD47KO-WT [1]: 23.698
CC(C)OC(=O)C(C(=O)OC(C)C)=C1SC=CS1 [Malotilate]	32.716	81.666	–
CC(=O)O[C@@]12CO[C@@H]1C[C@H](O)[C@@]1(C)C(=O)[C@H](O)C3=C(C)[C@@H](O)C[C@@](O)([C@@H](OC(=O)c4ccccc4)[C@H]21)C3(C)C [10-Deacetylbaccatin]	–	–	Maximal Response WT (RLU) (WT Jurkat cells): 39.362 RLU; Maximal Response CD47 KO (RLU) [1]: 76.768 RLU; Δ Maximal Response CD47KO-WT [1]: 37.406
CC(=O)O[C@H]1C(=O)[C@@]2(C)[C@H]([C@H](OC(=O)c3ccccc3)[C@]3(O)C[C@H](OC(=O)[C@H](O)[C@@H](NC(=O)c4ccccc4)c4ccccc4)C(C)=C1C3(C)C)[C@]1(OC(C)=O)CO[C@@H]1C[C@@H]2O [Paclitaxel]	19.451	55.703	–
O=C1NC(=O)[C@@H](c2cn3c4c(cccc24)CCC3)[C@@H]1c1c[nH]c2ccccc12 [Tivantinib]	9.411	35.424	–
C[C@H]1[C@H](C)CC[C@]2(C(=O)O)CC[C@]3(C)C(=CC[C@@H]4[C@@]5(C)C[C@@H](O)[C@H](O)[C@@](C)(CO)[C@@H]5CC[C@]43C)[C@H]12 [Asiatic acid]	61.399	87.171	–
CN(C)S(=O)(=O)c1ccc2c(c1)/C(=C/c1cc3c([nH]1)CCCC3)C(=O)N2 [SU-6656]	39.636	72.735	–
CCCn1c(=O)c2[nH]c(C34CC5CC(CC3C5)C4)nc2n(CCC)c1=O [Rolofylline]	61.315	84.234	–
CS[C@H]1SC[C@H]2C(=O)N(C)[C@@H](C(C)C)C(=O)OC[C@@H](NC(=O)c3cnc4ccccc4n3)C(=O)N[C@@H](C)C(=O)N(C)[C@@H]1C(=O)N(C)[C@@H](C(C)C)C(=O)OC[C@@H](NC(=O)c1cnc3ccccc3n1)C(=O)N[C@@H](C)C(=O)N2C [Echinomycin]	–	–	Maximal Response WT (RLU) (WT Jurkat cells): 8.075 RLU; Maximal Response CD47 KO (RLU) [1]: 55.044 RLU
O=c1c(-c2ccc(O)cc2)coc2c([C@@H]3O[C@H](CO)[C@@H](O)[C@H](O)[C@H]3O)c(O)ccc12 [Puerarin]	12.378	110.056	–
C[C@H]1[C@@H](CC(C[C@H]2O[C@@H]3O[C@]4(C)CC[C@H]5[C@H](C)CC[C@@H]([C@H]2C)[C@@]35OO4)CS(=O)(=O)c2ccc(COC(=O)N(C)C)cc2)O[C@@H]2O[C@]3(C)CC[C@H]4[C@H](C)CC[C@@H]1[C@@]24OO3 (some centres unmarked) [ASR-isobudimer-SO2Ph-4-CH2OC(O)NMe2]	27.802	50.082	Δ Maximal Response CD47KO-WT [1, 4]: 22.28
Cc1ccc(C(C)(O)c2nc3ccccc3s2)c(C)c1 (centres unmarked) [AC-265347]	76.539	108.022	Δ Maximal Response CD47KO-WT [1, 4]: 31.483
